# Measured values taken from PubChem BioAssay AID652104 (National Center for Advancing Translational Sciences (NCATS), 2013).
# Out of some 410,000 compounds screened, about 7,200 (1.8%) were called active. The inconclusive results got no clear call from the source; some entries with a clear call stand among them for comparison. The call rests on the fitted dose curve; in most records, active means well fitted activation curve with a large enough effect; inconclusive means small, poorly fitted or top-dose-only effect, or another doubt; inactive means no such curve, though single readings can be large or run the other way. No potency is given beside an inconclusive call; the fits are too rough.
# Experiment: qHTS of TDP-43 Inhibitors; further: nearly all actives have a fitted effect of over 50% in size; on growth rescue (activation): % of control where 0% means no effect
# Conditions: TDP-43 expressing yeast growth rescue, BacTiter-Glo, 24 h; growth rescue (activation): at 46.1 µM (top of the series) unless noted
# Summary of the method: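 Cell-based yeast growth screen: TDP-43 expression induced in galactose, inoculum OD600=0.02 after raffinose pregrowth to mid-log. Read-out BacTiter-Glo luminescence at 24 hr, 30 deg C; inhibition of toxicity seen as signal increase.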
# Potency means the concentration at half of the fitted maximal effect; tags describe the fitted curve by direction and shape.
Structure (SMILES),Potency,growth rescue (activation)
CC(C)(C)C(=O)O/N=C(\N)c1ccc(-c2csnn2)cc1,"inconclusive [activator, single point]",
COc1ccc(-c2cc(C(=O)Nc3nc4ccccc4s3)c3ccccc3n2)cc1OC,"inconclusive [activator, single point]",
CN(Cc1ccc2c(c1)OCCO2)C(=O)CSc1ncnc2sccc12,"inconclusive [activator, partial curve]",
CCOc1ccc(-c2nc(-c3ccc(OC)cc3)no2)cc1OCC,"inconclusive [activator, partial curve]",
CCOc1ccc(/C(O)=C2\C(=O)C(=O)N(CCN(C)C)C2c2cccc(OC)c2OC)cc1Cl (stereo unspecified),"inconclusive [activator, single point]",
COc1ccc2c(c1)CCc1cc(C(=O)O)sc1-2,"inconclusive [activator, single point]",
CCc1cccc(NC(=O)C2CCCN(c3cnccn3)C2)c1 (stereo unspecified),"inconclusive [activator, partial curve]",
COc1ccc(OCCNC(=O)/C=C/c2ccc([N+](=O)[O-])cc2)cc1,"inconclusive [activator, partial curve]",
COC(=O)[C@]1(S(=O)(=O)c2ccccc2)C[C@@H]2ON=C(c3ccc(OC)cc3)[C@@H]2C1,active: 17.8 µM,
Cc1ccc(S(=O)(=O)N(CC(O)Cn2c3ccccc3c3ccccc32)c2cccc(C(N)=O)c2)cc1 (stereo unspecified),inactive,
Cc1ccc(C)c(NC(=O)CN2C(=O)CCc3ccccc32)c1,"inconclusive [activator, partial curve]",
CCCCN(CC)CCCNC(=O)c1sc2nc(C)cc(C)c2c1-n1cccc1,inactive,
CCC(=O)Nc1nc2c(OC)ccc(OC)c2s1,"inconclusive [activator, full curve, poor fit]",
C#Cc1ccc([C@@H]2C=C(C(=O)Nc3ccccc3)O[C@H](OCC)[C@H]2CCCO)cc1,"inconclusive [activator, single point]",
COc1ccc(NC(=O)CC23CC4CC(CC(C4)C2)C3)cn1,"inconclusive [activator, single point]",
NC(=O)C1(C(N)=O)OC1c1ccc(Cl)cc1Cl (stereo unspecified),"inconclusive [activator, single point]",
COC(=O)C(/C=N/OCc1ccc([N+](=O)[O-])cc1)NC(=O)c1ccccc1 (stereo unspecified),inactive,
O=C(Nc1ccccc1Oc1ccccc1)c1cccc([N+](=O)[O-])c1,active: 14.1 µM,
COc1ccc(CCNC(=O)Cn2c(=O)n(-c3ccc(F)cc3)c(=O)c3sccc32)cc1OC,inactive,
COc1ccc(N2CCN(C(=O)c3cccc(F)c3)CC2)c([N+](=O)[O-])c1,"inconclusive [activator, single point]",
O=[N+]([O-])c1cc(/C=N/n2c(-c3cccnc3)n[nH]c2=S)ccc1Cl,inactive,
O=[N+]([O-])c1cc(C(F)(F)F)ccc1Oc1cccnc1[N+](=O)[O-],,inactive: -6.89% [at 0.397 µM]
Cc1ccc(-n2nnnc2CNC(=O)C(C)(C)C)cc1C,inactive,

Structure (SMILES),Potency,growth rescue (activation)
N=C1c2ccccc2CN1NC(=O)c1cccc(S(=O)(=O)N2CCOCC2)c1,inactive,
c1ccc(-c2nnc(CSc3ccc4c(c3)OCCO4)o2)cc1,active: 12.6 µM,
Cc1nc(SC(C)C(=O)Nc2ccccc2C)cc(-c2ccccc2)n1 (stereo unspecified),"inconclusive [activator, partial curve]",
CC(=O)c1cccc(NC(=O)COC(=O)COc2c(Cl)cc(Cl)c3ccc(C)nc23)c1,"inconclusive [activator, single point]",
CCCOc1ccc(CCC(=O)N/N=C/c2ccc([N+](=O)[O-])o2)cc1,"inconclusive [activator, partial curve]",
C=CCNCc1ccc(C(=O)NCCCCCCC)cc1[N+](=O)[O-],inactive,
COc1ccc(-c2csc(Nc3ccc(C)cn3)n2)cc1,active: 12.6 µM,
CCCNC(=O)c1cccc(Cn2nc(C)c(Br)c2C)c1,"inconclusive [activator, single point]",
CN(CC(=O)Nc1ccccc1Br)C(=O)c1ccccc1OCc1ccc(F)cc1,"inconclusive [activator, single point]",
Cc1ccc(CCNC(=O)CCCn2nc(C)c3c(C)n(-c4ccccc4)nc3c2=O)cc1,inactive,
Cc1ccc(C)c(CSc2ccc3nnc(-c4ccccn4)n3n2)c1,"inconclusive [activator, single point]",
O=C(CCn1c(=O)oc2ccccc21)n1c(=O)oc2ccccc21,"inconclusive [activator, partial curve]",
COc1ccc(CNC(=O)CSc2nc(-c3ccc(OC)cc3)cc(C(F)(F)F)n2)cc1,inactive,
CC(=O)NC(=S)NNC(=O)c1ccc(Br)cc1,"inconclusive [activator, single point]",
CC(C)(C)c1nc2c(C#N)c(-c3ccc(Cl)cc3)ccn2n1,"inconclusive [activator, single point]",
Cc1ccc(/C=C/c2onc(C)c2S(=O)(=O)N2CCC(C(=O)N3CCC(N(C)C(C)C)CC3)CC2)cc1,inactive,
Cc1ccc(-n2c(Cc3ccccc3)nnc2SCc2nc(-c3cccs3)no2)cc1,"inconclusive [activator, single point]",
Cc1ccc(S(=O)(=O)N(C)CC(=O)Nc2nnc(CC(C)C)s2)cc1,inactive,
O=C1C(=Cc2cccc(Cl)c2)CCc2ccccc21,active: 20 µM,
O=C(COC(=O)Cc1ccc(Cl)cc1)NC1CCCC1,inactive,
O=C(CC1N=C2c3ccccc3N=C(SCc3ccc(Cl)cc3)N2C1=O)NCc1cccs1 (stereo unspecified),"inconclusive [activator, partial curve]",
CC1(C(=O)NS(=O)(=O)C2CC2)CCN(C(=O)C2(c3ccc(Cl)cc3)CCCC2)C1 (stereo unspecified),inactive,
COc1ccccc1/C=C/c1nc2ccccc2n1C(C)C,inactive,
